Molecular target: active TGFβ3 (UniProt P10600)
Test: blocking of active TGFβ3 (1 ng/mL) in solution, 30 min in PBS; free TGFβ3 by ELISA

Chain of UniProt P10600 (P10600 301-412): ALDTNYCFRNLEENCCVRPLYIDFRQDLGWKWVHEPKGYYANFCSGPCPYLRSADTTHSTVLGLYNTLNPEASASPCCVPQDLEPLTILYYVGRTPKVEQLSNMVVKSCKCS

B1: bFISTv3 (bivalent FIST; fusion of an IL-2 polypeptide, a first sTBRII receptor polypeptide and a second sTBRII receptor polypeptide) (protein)
chain: [omitted - about 150 residues]KSDVEMEAQKGEMICVTCNRTAHPLKHVNNDMIVTDNNGAVKLPQLCKFCDVRFSTCDNQKSCMSNCSITSICEKPQEVCVAVWRKNDENITLETVCHDPKLTYHGFTLEDAASPKCVMKEKKKPGETFFMCSCSSDECNDNIIFIPPHVQKSVNNDMIVTDNNGAVKLPQLCKFCDVRFSTCDNQKSCMSNCSITSICEKPHEVCVAVWRKNDENITLETVCHDPKLTYHGFTLEDAASPKCVMKEKKKPGETFFMCSCSADECNDNIIFSEDYNTSNPD
With B1 the IC50 was 0.07 nM.

From patent US20220127332A1
